Test results published in patent publication US20180273573A1, “INHIBITORS OF MENAQUINONE BIOSYNTHESIS” (Memorial Sloan-Kettering Cancer Center, priority 2015, published 2018).
≈ marks a conversion by molar mass, not a printed value. Where two headings read alike, the source gives them in different places.

What was measured:
B. subtilis (ATCC 6051) = experiment: MIC, Alamar blue assay; assay type: cell-based; settings: Table E5; for MIC: Bacillus subtilis, ATCC6051
[1] = test system: MRSA, S. aureus (ATCC BAA-1762); experiment: MIC, Alamar blue assay; assay type: cell-based, methicillin-resistant S. aureus; settings: Table E5; for MIC: Staphylococcus aureus
E. coli MenE (ecMenE) = E. coli MenE (ecMenE) (Escherichia coli, UniProt P37353); experiment: MenE-MenB coupled assay (enzyme inhibition, catalytic parameters); settings: wild-type ecMenE, substrate OSB
[2] = with addition of exogenous menaquinone-4 (10 μg/mL), read-out: B. subtilis MIC (in parentheses)
[3] = without menaquinone-4, read-out: B. subtilis MIC
[4] = with addition of exogenous menaquinone-4 (10 μg/mL), read-out: MRSA MIC (in parentheses)
[5] = without menaquinone-4, read-out: MRSA MIC
[6] = with addition of exogenous menaquinone-4 (10 μg/mL)

Sequence of E. coli MenE (ecMenE) (P37353 whole entry): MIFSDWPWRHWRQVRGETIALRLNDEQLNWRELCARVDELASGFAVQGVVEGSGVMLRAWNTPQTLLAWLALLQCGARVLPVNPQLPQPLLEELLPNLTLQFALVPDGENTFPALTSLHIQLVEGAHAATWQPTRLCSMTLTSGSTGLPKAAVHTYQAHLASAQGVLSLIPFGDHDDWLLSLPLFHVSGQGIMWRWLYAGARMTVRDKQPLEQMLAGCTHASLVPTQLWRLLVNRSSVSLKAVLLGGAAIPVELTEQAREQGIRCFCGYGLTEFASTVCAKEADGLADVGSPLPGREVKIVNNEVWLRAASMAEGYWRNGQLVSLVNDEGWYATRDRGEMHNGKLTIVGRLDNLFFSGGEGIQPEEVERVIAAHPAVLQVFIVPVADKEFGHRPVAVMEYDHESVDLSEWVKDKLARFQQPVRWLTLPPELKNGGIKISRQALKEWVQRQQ

Q: With `Nc1ncnc2c1ncn2[C@@H]1O[C@H](COS(=O)(=O)NC(=O)CC[C@@]2(O)c3ccccc3[C@@H](O)C2(F)F)[C@@H](O)[C@H]1O` [(1R,3R)-2, 5′-O—(N-[3″-((1R,3R)-2′″,2′″-difluoro-1′″,3′″-dihydroxy-1′″-indanyl)propanoyl]-sulfamoyl)adenosine] as the molecule, how does the MIC (B. subtilis (ATCC 6051); [2]) read?
A: The MIC was 15.6 µg/mL (≈ 26.6 µM).

Q: And the MIC (B. subtilis (ATCC 6051); [3])?
A: Its MIC is 15.6 µg/mL (≈ 26.6 µM).

Q: What about the MIC [1, 4] of the same molecule?
A: The MIC was 15.6 µg/mL (≈ 26.6 µM).

Q: What about the MIC [1, 5] of the same molecule?
A: The MIC was 15.6 µg/mL (≈ 26.6 µM).

Q: With `Nc1ncnc2c1ncn2[C@@H]1O[C@H](COS(=O)(=O)NC(=O)CC[C@]2(O)c3ccccc3[C@H](O)C2(F)F)[C@@H](O)[C@H]1O` [(1S,3S)-2, 5′-O—(N-[3″-((1S,3S)-2′″,2′″-difluoro-1′″,3′″-dihydroxy-1′″-indanyl)propanoyl]sulfamoyl)adenosine] as the molecule, how does the MIC (B. subtilis (ATCC 6051); [2]) read?
A: The MIC was 15.6 µg/mL (≈ 26.6 µM).

Q: What about the MIC (B. subtilis (ATCC 6051); [3]) of the same molecule?
A: Its MIC is 15.6 µg/mL (≈ 26.6 µM).

Q: What about the MIC [1, 4] of the same molecule?
A: The MIC was 15.6 µg/mL (≈ 26.6 µM).

Q: And the MIC [1, 5]?
A: Its MIC is 15.6 µg/mL (≈ 26.6 µM).

Q: Which “B. subtilis MIC (in parentheses)” value (B. subtilis (ATCC 6051); [6]) does the source give for `Nc1ncnc2c1ncn2[C@@H]1O[C@H](COS(N)(=O)=O)[C@@H](O)[C@H]1O` [AMS, adenosinemonosulfamate, reference compound] here?
A: Its value is 3.9 (3.9) μg/mL.

Q: What about the “B. subtilis MIC” value (B. subtilis (ATCC 6051); without menaquinone-4) of the same molecule?
A: The value was 3.9 (3.9) μg/mL.

Q: What about the “MRSA MIC (in parentheses)” value [1, 6] of the same molecule?
A: Its value is 1.9 (1.9) μg/mL.

Q: What about the “MRSA MIC” value ([1]; without menaquinone-4) of the same molecule?
A: The value was 1.9 (1.9) μg/mL.

Q: With `Nc1ncnc2c1ncn2[C@@H]1O[C@H](COS(=O)(=O)NC(=O)CCC(=O)c2ccccc2-c2nn[nH]n2)[C@@H](O)[C@H]1O` [Compound 105, 5′-O—(N-[4-(2-(2H-Tetrazol-5-yl)phenyl)-4-oxobutanoyl]sulfamoyl)adenosine] as the molecule, how does the pKa (physchem) read?
A: Its pKa is 3.4.

Q: With `O=C(O)CCC(=O)c1ccccc1C(=O)O` [OSB, o-succinylbenzoate, reference compound] as the molecule, how does the Km (E. coli MenE (ecMenE); read-out: KM OSB) read?
A: The Km was 1 ± 0.02 µM.

Q: And the kcat (E. coli MenE (ecMenE))?
A: The kcat was 0.767 ± 0.0017 s⁻¹.
